The values below come from paper PMC12136788.

T1: UNK ZnF1-3 (human, UniProt Q9C0B0 31-174)
T1 sequence: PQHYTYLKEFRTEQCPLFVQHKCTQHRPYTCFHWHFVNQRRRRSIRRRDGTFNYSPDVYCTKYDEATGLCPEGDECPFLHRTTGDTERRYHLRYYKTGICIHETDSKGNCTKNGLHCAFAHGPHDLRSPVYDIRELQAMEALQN

B1: chr13:107726893:107726894:-_ENSMUSG00000042590_ENSMUST00000080856|mus_mus|motif|central (ssRNA)
RNA: GGGAGUUCUACAGUCCGACGAUCCCUUUCCACUUGUCCACACGAAGCGGCGUUGGUUGCUUCCUCGUCCCCCACGCUCCGGGUCCACACGCUGCCGCCUACUGAUGCCGAAAACGGCUUCUAGGAACGCGCCAUGUUCCGCGUCAACAGAGGAUUGAGCAUCA
B2: chr6:142724167:142724168:+_ENSMUSG00000030282_ENSMUST00000032419|mus_mus|FALSE|FALSE (ssRNA)
RNA: GGGAGUUCUACAGUCCGACGAUCCCAGACUCAUUGCUUUACAAUAAAUAAAAUCCCAGCAUCAUUAACACCACACACACUAGUUUGACAGGGCACAAUACAGAGUGGAUUGUUUAUGAGGUCGGAGCAAGACUAGGUCAAUCCCAACAGAGGAUUGAGCAUCA
B3: chrX:71549400:71549401:+_ENSMUSG00000019087_ENSMUST00000019231|mus_hu|mus_mus_mus_hu_False|1_108 (ssRNA)
RNA: GGGAGUUCUACAGUCCGACGAUCGCAAGGAAGAGGAGGAAGCUCUUCAGUCCAGUGCGCUGCAGGGUGGGAAAGCAACAACACGGACACCGUCCCACCCUCAACCCCCCCACUGGCACAGGGUCACACAAUCUGGGAAGUGAUCAACAGAGGAUUGAGCAUCA
B4: 5019412_5019532_1253_3pUTR_ENSMUSG00000022536_ENSMUST00000115844|mouse|control|control (ssRNA)
RNA: GGGAGUUCUACAGUCCGACGAUCAGCAGCUGCUGCAGUCCUCAUACAAGCCCCUGUCUCCGGCUGCUAAGAUCACCAACAUCCCAUCAUUGGACAGUUGCUGAUUCCCUGAGACUGGUGCUUCCAGAAAGCGUCCCCCUCUGGCAACAGAGGAUUGAGCAUCA
B5: chr13:30086970:30086971:-_ENSG00000139514_ENST00000380752|hu_mus|motif|central (ssRNA)
RNA: GGGAGUUCUACAGUCCGACGAUCAGGCCCUGUGUAGGCUGGGGAAGUGUGCUACCACUAGGCUACACGCCUGUCCAGCCCCACGGACUCUUCCAUUCUCAAGAAUCUUCCAAAGCAGAGGAAAGACAGGGCCAUCAGUCUACCCAACAGAGGAUUGAGCAUCA
B6: chr17:60770872:60770873:+_ENSG00000011028_ENST00000303375|hu_hu|hu_hu_hu_mus_True|78_98 (ssRNA)
RNA: GGGAGUUCUACAGUCCGACGAUCUCUUUAAAAAAAAUUCCUUUUUUACAAACAAUAAUAAUGGCACUCGAGAAUCAAGAACUACAAUAGAGGGUCCGCUUUGAGUUUUUGUUCACAUCGUCCUGCACUGGGACACGGGGACUGCAACAGAGGAUUGAGCAUCA
B7: chr3:88228879:88228880:-_ENSMUSG00000050144_ENSMUST00000057935|mus_mus|motif|central (ssRNA)
RNA: GGGAGUUCUACAGUCCGACGAUCAUAUCCACUGCCUCCUCGACAGGUUGAACCUUAGGUACCUCUGAUCCUUCAAGACACCGGAGCACCGUGGUCGCUUUCCUUCUCAGACCCCAGCGCUUUAGCCGCGUCUGAGACUGGGACCAACAGAGGAUUGAGCAUCA
B8: chr3:44794862:44794863:-_ENSG00000163807_ENST00000296121|hu_mus|FALSE|FALSE (ssRNA)
RNA: GGGAGUUCUACAGUCCGACGAUCGUCCACAAUAUUCAUAUUUACUCAUUUUCAUCUUCACUGUCAAAAGAAAGGAGACUGCUAUUUUUUAUUUGUUUUUGUGAGUUCUUUCUAACUGAACUUUGCUUAUUUACAUCAUCUUCACAACAGAGGAUUGAGCAUCA
B9: chr10:112364898:112364899:-_ENSMUSG00000074748_ENSMUST00000099276|mus_mus|FALSE|FALSE (ssRNA)
RNA: GGGAGUUCUACAGUCCGACGAUCAUCGAAUUCAAACGGGAAUAUUAAUAUUUUUAGUAUUUAAGUCACAUACCUGACUUCUAUUUGUAUCAAAGAGGCCCAAUUGGAGGCUUAGAAAUCAGAGGAGCAGUCCACCGAAGCUGACAACAGAGGAUUGAGCAUCA
B10: 13423187_13423307_457_5pUTR_ENSMUSG00000031012_ENSMUST00000115438|mouse|control|control (ssRNA)
RNA: GGGAGUUCUACAGUCCGACGAUCGCCAUGGUCCGAAGGGGACAGCGGCCGCAGCGUGGAGGGUUCUGAAAACUGGGUUGGGGGCGCCCAAGAGCUCAGUGCCCGGCUCCGGGCUCGUGUCCUCCACUCAGGACCCGCAAGCCCCAACAGAGGAUUGAGCAUCA
B11: chr8:117878989:117878990:-_ENSG00000164754_ENST00000297338|hu_hu|hu_hu_hu_mus_True|18_38 (ssRNA)
RNA: GGGAGUUCUACAGUCCGACGAUCCCAGAGGCCCUCGUUUACUGAGGACAAAAUGUGCGUAGAACAUUUUUCUUAUUUGCUAUGAAAUAAGAAGAAAACCUUGCUCUGGCGGGGAGCUUGGGCGGGCGGGUGGCCCGGGGAGGGCAACAGAGGAUUGAGCAUCA
B12: chr14:58718896:58718897:+_ENSG00000100567_ENST00000216455|hu_hu|FALSE|FALSE (ssRNA)
RNA: GGGAGUUCUACAGUCCGACGAUCCCGAUCAACAUUAAAAAGUCUUUUGUUGGAACCUUCUUCAUAAAGUUUAGAAAGGACUAAUUUUUCUACCCCAAAGACAACACCAUCUUUGCAUCUGAUUCCAAUAGCUGUACUACUAUUCAACAGAGGAUUGAGCAUCA
B13: chr17:7482246:7482247:+_ENSG00000161960_ENST00000293831|hu_hu|FALSE|FALSE (ssRNA)
RNA: GGGAGUUCUACAGUCCGACGAUCAGUUUCCAAGUCAUUUUAUUCAGAAUUUUGUGUUUGUUUCCUGAAUCAAUAAAUACUAUACAAAACAAUGUAAAAAUGGCUACCAUUUUCUCUCCCCUGCUUCCCCCCACCUGGGGACAACAACAGAGGAUUGAGCAUCA
B14: chr22:19452774:19452775:-_ENSG00000070010_ENST00000399523|hu_hu|hu_hu_hu_mus_False|88_88 (ssRNA)
RNA: GGGAGUUCUACAGUCCGACGAUCCUUCUCAUUGUAGUUGAUAGCAAUCACAUCCCCAGUCGUCAGACAGGCGAAGUUUCUCAAUGCAUUUUCUAAUACCGCUUUAGGGUUGGUAAUAUCCAGGAAGUCUGGGCUCUGAGGCUGCAACAGAGGAUUGAGCAUCA
B15: chr8:145151508:145151509:+_ENSG00000179091_ENST00000318911|hu_mus|FALSE|FALSE (ssRNA)
RNA: GGGAGUUCUACAGUCCGACGAUCGCCUUCUCGCAAUGACACCCCAGUGGGGGGCUCACAGUAGCCAGUGAGCAGGGAAAAUACGUAGUCCUCACCACCAUGCCUAGCUCGAACGAUGUAGCUGAGGUCAGGGGGUAAAGCUCCCAACAGAGGAUUGAGCAUCA
B16: chr2:30816663:30816664:-_ENSMUSG00000026849_ENSMUST00000028200|mus_mus|FALSE|FALSE (ssRNA)
RNA: GGGAGUUCUACAGUCCGACGAUCUCUGAUGCACAUUUUCAGGUGCUUGUACUCCAGGGGCAGGAAGGGGACAAAAUAAUCUAUGAGGUUCCGGUCAAUGAGGCUGCUGUGCCAGAAGCCACUGUUCUUGUUAUUGAAGACCGACAACAGAGGAUUGAGCAUCA
B17: chr10:33214929:33214930:-_ENSG00000150093_ENST00000302278|hu_mus|motif|central (ssRNA)
RNA: GGGAGUUCUACAGUCCGACGAUCAACAAGUUCAUUGAAAAACUCUCCUCUGUCAGUAAGACUAAGCACAUUUUUGUAGCGGAAUGGGCUGGUGCAGUUUUGUUCACUUGUACAAGGAUUUCUUAGCUUUGCUGGGGUUGUGCUCAACAGAGGAUUGAGCAUCA
B18: 104489726_104491872_993_CDS_ENSMUSG00000027176_ENSMUST00000028599|mouse|control|control (ssRNA)
RNA: GGGAGUUCUACAGUCCGACGAUCAUACUGGGCAGCUUCAUACCAGAUAUCAGGGUGAUGGCCCAGCACAAGGAGGCACUGUUCAUAGGCAAACAUAACUCUUUUGGUUAUCAGGGUCUGGUCCUCUGUGCGAAGAGGGUUGCUCAACAGAGGAUUGAGCAUCA
B19: chr4:115894766:115894767:+_ENSMUSG00000028698_ENSMUST00000030464|mus_hu|motif|central (ssRNA)
RNA: GGGAGUUCUACAGUCCGACGAUCUUCCACACGGAAAUGUACUUCGGGUUUUCCAACGGCCAGUACCAGUCCGGCCAAACGGCCCGAACAGGGUCCUCCCCCUCUCUCCUACAGAACACAACAAAAUGCCCCCGAACUUUCAAGCAACAGAGGAUUGAGCAUCA
B20: chr1:52246310:52246311:-_ENSMUSG00000026103_ENSMUST00000114513|mus_hu|FALSE|FALSE (ssRNA)
RNA: GGGAGUUCUACAGUCCGACGAUCGCCCAUCUUAUCCAGAGGAGGAGACCAGCACAUCAUACCCAUAACAUUGGGGACAACUAAAAGAAUGCCCCCAGCAACUCCAGAUUUUGCAGGAAGACCAACAUGGAAAGCAAACUGCCCCAACAGAGGAUUGAGCAUCA
B21: chr11:58768638:58768639:+_ENSMUSG00000078851_ENSMUST00000108817|mus_mus|motif|central (ssRNA)
RNA: GGGAGUUCUACAGUCCGACGAUCUCUAAUGAGGUUGUGGGUGGCUCUGAAAAGAGCCUUUGGUGUCUGUAAAAGUCGCACGGACGACCGGUAGGGGCCUCACUUGCCCUUGGCCUUGUGGUGGCUCUCGGUCUUCUUGGGCAGCAACAGAGGAUUGAGCAUCA
B22: chr7:118222036:118222037:-_ENSMUSG00000005610_ENSMUST00000162415|mus_hu|FALSE|FALSE (ssRNA)
RNA: GGGAGUUCUACAGUCCGACGAUCAUCAAAGUUUGGUGCAUCUUCUGCCAAUCGCAGACAUAGCUGAGCAUACAGUGAGCUAUACUUUGGCUCUUCUAGGGCUUUGUCCACAAUCAGCAGUAUGACCCCUUUAAGGAUGAGUUUCAACAGAGGAUUGAGCAUCA

This is one part of the list.

This assay addresses T1, UNK ZnF1-3. Put plainly: nsRBNS (natural sequence RNA bind-n-seq); RBNS binding buffer (assumed for nsRBNS): 25 mM Tris pH 7.5, 150 mM KCl, 3 mM MgCl2, 0.01% Triton X-100, 500 ug/ml BSA, 20 U/ml SUPERase-In, 4 C; UNK is unkempt and MSI1 is Musashi-1; names of the RNAs are library labels; protein concentration not given here; high values mean tight binding.
As to B1, the binding signal was found to be 0.696 enrichment R. B2: the binding signal worked out at 1.73 enrichment R. In the case of B3 it was 1.35 enrichment R.

B4 returned a binding signal of 0.402 enrichment R. To B5 belongs 1.03 enrichment R; to B6, 1.53 enrichment R; to B7, 0.678 enrichment R. To B8 belongs 0.696 enrichment R. Turning to B9, the binding signal is 1.92 enrichment R. To B10 belongs 0.959 enrichment R; to B11, 0.987 enrichment R; to B12, 0.99 enrichment R. In the case of B13 it was 2.16 enrichment R; in that of B14, 0.79 enrichment R; in that of B15, 1.46 enrichment R. In turn, B16 came in with a binding signal of 1.06 enrichment R. To B17 belongs 0.842 enrichment R.

B18 had a binding signal of 0.919 enrichment R. To B19 belongs 1.11 enrichment R. Molecule B20 had a binding signal of 2.09 enrichment R.

As for B21, the binding signal was 0.728 enrichment R. To B22 belongs 0.618 enrichment R.
